# Results taken from PubChem BioAssay AID504333 (National Center for Advancing Translational Sciences (NCATS), 2011).
# About 16,000 (4.4%) of roughly 360,000 compounds were called active. Inconclusive means that the source gave no clear call. Such entries were picked first, then a sample of the others. Calls come from the whole dose curve; as a rule, active = well fitted inhibition curve with a large enough effect; inconclusive = small, poorly fitted or top-dose-only effect; inactive = no such curve, though single readings can be large or run the other way. A potency beside an inconclusive call is a rough fit, not a confirmed value.
# Biological target: Bromodomain adjacent to zinc finger domain protein 2B (Homo sapiens) (UniProt Q9UIF8)
# Sequence of UniProt Q9UIF8 (Q9UIF8 whole entry, looked up, the tested form may be a part): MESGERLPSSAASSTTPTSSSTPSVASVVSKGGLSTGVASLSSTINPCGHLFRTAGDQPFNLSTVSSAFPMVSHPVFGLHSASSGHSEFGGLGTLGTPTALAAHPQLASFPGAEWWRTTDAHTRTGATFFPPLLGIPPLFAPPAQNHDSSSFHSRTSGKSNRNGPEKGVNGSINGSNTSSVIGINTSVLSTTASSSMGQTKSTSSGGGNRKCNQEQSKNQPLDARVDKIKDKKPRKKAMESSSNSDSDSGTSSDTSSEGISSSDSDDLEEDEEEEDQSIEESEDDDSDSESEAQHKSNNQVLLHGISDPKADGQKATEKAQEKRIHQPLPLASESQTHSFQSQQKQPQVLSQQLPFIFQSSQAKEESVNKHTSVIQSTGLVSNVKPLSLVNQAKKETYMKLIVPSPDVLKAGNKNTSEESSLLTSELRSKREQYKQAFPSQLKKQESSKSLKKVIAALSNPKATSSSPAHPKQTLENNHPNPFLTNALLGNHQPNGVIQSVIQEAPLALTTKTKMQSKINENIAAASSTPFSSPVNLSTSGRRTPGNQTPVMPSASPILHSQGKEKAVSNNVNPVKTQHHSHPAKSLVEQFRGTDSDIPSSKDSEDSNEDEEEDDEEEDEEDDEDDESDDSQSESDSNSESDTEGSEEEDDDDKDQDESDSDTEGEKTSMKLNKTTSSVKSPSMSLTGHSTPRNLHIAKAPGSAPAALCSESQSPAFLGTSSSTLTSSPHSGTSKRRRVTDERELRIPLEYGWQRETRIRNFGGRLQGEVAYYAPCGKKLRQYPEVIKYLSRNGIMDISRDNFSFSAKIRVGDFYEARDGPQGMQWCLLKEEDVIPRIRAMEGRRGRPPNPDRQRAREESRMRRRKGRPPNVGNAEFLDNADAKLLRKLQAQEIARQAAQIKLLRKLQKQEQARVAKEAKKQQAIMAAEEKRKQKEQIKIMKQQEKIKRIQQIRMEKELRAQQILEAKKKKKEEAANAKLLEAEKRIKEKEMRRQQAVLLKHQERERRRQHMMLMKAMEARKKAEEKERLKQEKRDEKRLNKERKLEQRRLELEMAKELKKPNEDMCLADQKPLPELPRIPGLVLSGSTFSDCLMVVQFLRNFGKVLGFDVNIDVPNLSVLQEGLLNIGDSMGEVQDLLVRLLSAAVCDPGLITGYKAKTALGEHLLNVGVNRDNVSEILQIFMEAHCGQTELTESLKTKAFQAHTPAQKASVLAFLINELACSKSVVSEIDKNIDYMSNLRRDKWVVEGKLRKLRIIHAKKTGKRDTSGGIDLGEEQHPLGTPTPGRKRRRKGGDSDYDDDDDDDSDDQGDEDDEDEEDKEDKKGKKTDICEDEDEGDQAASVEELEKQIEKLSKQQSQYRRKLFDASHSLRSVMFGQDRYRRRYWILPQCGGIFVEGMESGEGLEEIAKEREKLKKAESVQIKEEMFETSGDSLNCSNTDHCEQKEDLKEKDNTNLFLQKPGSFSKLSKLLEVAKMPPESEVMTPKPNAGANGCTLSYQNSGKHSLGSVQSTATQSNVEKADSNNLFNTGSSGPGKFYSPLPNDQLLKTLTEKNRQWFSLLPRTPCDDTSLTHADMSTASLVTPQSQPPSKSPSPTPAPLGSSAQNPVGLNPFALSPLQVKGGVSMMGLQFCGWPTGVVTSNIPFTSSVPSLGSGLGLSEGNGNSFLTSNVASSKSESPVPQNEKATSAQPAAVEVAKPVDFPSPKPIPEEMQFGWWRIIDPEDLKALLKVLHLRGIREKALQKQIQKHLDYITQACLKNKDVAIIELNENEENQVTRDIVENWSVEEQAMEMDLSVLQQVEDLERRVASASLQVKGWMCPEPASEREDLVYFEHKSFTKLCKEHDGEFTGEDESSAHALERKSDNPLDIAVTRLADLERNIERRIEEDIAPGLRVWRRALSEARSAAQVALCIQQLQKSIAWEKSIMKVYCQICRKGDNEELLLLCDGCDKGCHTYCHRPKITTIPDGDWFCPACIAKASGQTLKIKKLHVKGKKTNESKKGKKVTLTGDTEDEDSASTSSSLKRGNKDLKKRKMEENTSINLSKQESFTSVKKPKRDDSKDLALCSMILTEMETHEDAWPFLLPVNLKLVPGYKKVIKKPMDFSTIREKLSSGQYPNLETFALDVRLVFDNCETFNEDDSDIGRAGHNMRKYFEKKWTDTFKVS
# Assay: qHTS Assay for Inhibitors of BAZ2B; note: nearly all actives have a fitted effect of over 60% in size
# Details: AlphaScreen BAZ2B-H3K14Ac peptide displacement; activity change, negative = inhibition: at 114 µM (top of the series)
# Outline: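 AlphaScreen luminescence quantifies BAZ2B engagement of H3K14Ac peptide; the protein and biotinylated peptide are both at 50 nM final, buffer PBS pH 7.4 with 0.01% Tween-20, all steps at room temperature.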
# % is set by controls: 0 for no effect and ±100 for the full control effect; potency is the fitted concentration of half-maximal effect; tags give direction and shape of the fitted curve.
Structure (SMILES),"activity change, negative = inhibition",Potency
C/C(=N\OCC(=O)Nc1c(C)cc(C)cc1C)c1ccc2c(c1)OCCO2,inactive: 7.27%,
Nn1c(Cc2cccc3ccccc23)n[nH]c1=S,inactive: -33.6%,
Cc1ccc(Nc2cc(C)c3c(O)cccc3n2)cc1C,,active: 44.7 µM
O=C1c2cccnc2C(=O)N1Cc1ccc2c(c1)OCO2,inconclusive: -90.2% [inhibitor],
Cc1ccc(C(C(=O)NC2CCCCC2)N(Cc2ccccc2)C(=O)Cc2c[nH]c3ccccc23)o1 (centres undefined),,"inconclusive: 35.5 µM [inhibitor, full curve, poor fit]"
COc1ccc(CC(=O)N(C)Cc2ccc(C(C)(C)C)cc2)cc1S(=O)(=O)N1CCOCC1,,"inconclusive: 79.4 µM [inhibitor, single point]"
Cc1ccc(N2CCN(S(=O)(=O)c3ccc4c(c3)NC(=O)C(C)C(=O)N4)CC2C)cc1 (centres undefined),,"inconclusive: 89.1 µM [inhibitor, single point]"
CC(C)c1ccc(C2CC(c3ccc(Br)cc3)=NN2C(N)=S)cc1 (centres undefined),,"inconclusive: 39.8 µM [inhibitor, partial curve]"
CCOC(=O)c1c(C)c(-c2ccccc2)n(CC(=O)NC2CCCCCC2)c1C,inactive: -14.1%,
Cc1c(C(=O)O)sc(S(=O)(=O)N2CCN(C(=O)CCc3ccccc3)CC2)c1C(=O)O,,"inconclusive: 100 µM [inhibitor, single point]"
CCOC(=O)c1cc(C)n(-c2ccccc2)c1C,,active: 79.4 µM
CC(C)c1ccc(NC(=O)c2ccc(Cn3nc(N4CCN(c5ccccc5)CC4)ccc3=O)o2)cc1,,active: 39.8 µM
Cc1cccn2c(=O)c3cc(C(=O)NCc4ccco4)c(=N)n(CCc4ccccc4)c3nc12,inactive: -9%,
S=C1NC2=C(CCCC2=C2SCCS2)C(c2ccccc2)N1 (centres undefined),,"inconclusive: 35.5 µM [inhibitor, full curve]"
CC(C)(C)CN1CCNC(=O)C1CC(=O)NCCN1CCCc2ccccc21 (centres undefined),inactive: -31.5%,
CCn1c(SCC(=O)N/N=C/C=C\c2ccco2)nc2ccccc21,,active: 44.7 µM
CCN(CC)S(=O)(=O)c1ccc(C(=O)NCc2ccc3[nH]c4c(c3c2)CCCC4)cc1,,"inconclusive: 70.8 µM [inhibitor, single point]"
CC(C)(C)NC(=S)N/N=C/c1c(Cl)cccc1Cl,,"inconclusive: 89.1 µM [inhibitor, single point]"
c1ccc(-c2cc(N3CCCCCC3)n[nH]2)cc1,,"inconclusive: 25.1 µM [inhibitor, partial curve]"
CCCCn1c(N)c(N(CCOC)C(=O)c2ccc(-c3ccc(Cl)cc3)o2)c(=O)[nH]c1=O,,"inconclusive: 79.4 µM [inhibitor, single point]"
O=C(Nc1ccc(C(=O)N2CCCCC2)cc1)c1cccs1,inactive: 0.677%,
COc1ccccc1CN1CCN(C(=O)c2ccco2)CC1,,"inconclusive: 79.4 µM [inhibitor, single point]"
Cn1c(N)c(C(=O)CSc2nnc(-c3cccs3)n2C2CC2)c(=O)[nH]c1=O,inactive: 4.08%,
CCC(C)NC(=O)c1ccc2c(c1)N(Cc1ccccc1F)C(=O)c1ccccc1S2=O (centres undefined),inactive: -14.8%,
O=C(c1ccncc1)N(c1ccc2oc3c(c2c1)CCCC3)S(=O)(=O)c1ccc(F)cc1,,"inconclusive: 25.1 µM [inhibitor, full curve, poor fit]"

Structure (SMILES),"activity change, negative = inhibition",Potency
O=C(O)CCN1C(=O)/C(=C\c2ccc(OCc3ccccc3)c(OCc3ccccc3)c2)SC1=S,,active: 44.7 µM
CC1(C)CC(=O)/C(=C(\O)CCCN2C(=O)c3ccccc3C2=O)C(=NCCO)C1,inactive: -9.16%,
Cn1c(=O)c2[nH]c(N3CCN(c4ccccn4)CC3)nc2n(C)c1=O,inactive: 9.46%,
Cc1ccccc1Nc1nc(-c2sc(NC(=O)c3ccc([N+](=O)[O-])cc3)nc2C)cs1,,active: 44.7 µM
COc1ccc2c(c1)c(=O)oc1cc3oc(C)c(C)c3cc12,,active: 56.2 µM
COc1ccc(Nc2cnn(-c3nc4ccccc4s3)c(=O)c2Cl)cc1,inactive: -31.8%,
COc1ccc(N/N=C(\C#N)C(=N)SCc2ccccc2)cc1,,"inconclusive: 56.2 µM [inhibitor, partial curve]"
COc1cc2c(cc1OC)/C(=C/C(=O)N1CCOCC1)NC(C)(C)C2,inactive: -17%,
CCN(CCCNC(=O)c1cc2cc3ccc(OC)cc3nc2s1)c1cccc(C)c1,,"inconclusive: 89.1 µM [inhibitor, single point]"
CC(C)(C)Cc1nnc(NS(=O)(=O)c2ccc([N+](=O)[O-])cc2)s1,,"inconclusive: 89.1 µM [inhibitor, single point]"
Cc1nn(-c2ccc([N+](=O)[O-])cc2)c(N)c1-c1ccccc1,,active: 70.8 µM
COc1ccc(CCNC(=O)c2nnn(-c3cc(C)cc(C)c3)c2N)cc1OC,,"inconclusive: 89.1 µM [inhibitor, single point]"
Cc1oc2c(O)c(O)ccc2c(=O)c1-c1ccc(Cl)cc1,,"inconclusive: 79.4 µM [inhibitor, single point]"
O=C(N/N=C/c1cc(Cl)ccc1O)c1ccc(Br)cc1,,"inconclusive: 63.1 µM [inhibitor, partial curve, poor fit]"
O=C(O)CSc1c(O)c2ccccc2[nH]c1=O,,active: 14.1 µM
Cc1ccc2c(c1)c(C1=NC(=S)NC1=O)c(O)n2C,inactive: -2.76%,
COc1ccccc1/C=C/CN1CCN(Cc2ccc(F)cc2)C(CCO)C1 (centres undefined),,"inconclusive: 79.4 µM [inhibitor, single point]"
O=C(Nc1ccccc1N1CCCC1)c1ccccc1Cl,,"inconclusive: 70.8 µM [inhibitor, single point]"
COc1ccc(-c2nc3ccc(C(=O)NCCCN4CCOCC4)cc3nc2-c2ccc(OC)cc2)cc1,,"inconclusive: 50.1 µM [inhibitor, partial curve]"
CC(=O)Nc1nc(C(=O)O)cs1,,active: 31.6 µM
O=C(NC(=S)Nc1cc([N+](=O)[O-])ccc1O)c1ccc2c(c1)OCO2,,"inconclusive: 79.4 µM [inhibitor, partial curve]"
NS(=O)(=O)c1ccc(CNC(=O)Cc2cccs2)cc1,,active: 56.2 µM
Cc1ccc(OC(=O)c2ccc(C)c([N+](=O)[O-])c2)cn1,,"inconclusive: 79.4 µM [inhibitor, single point]"
CCCCc1nc2ccccc2c(NC(=O)CN2CCN(C)CC2)c1CCC,,active: 50.1 µM
O=C(O)c1ccc([N+](=O)[O-])c(CS(=O)(=O)c2ccc(Cl)cc2)c1,,"inconclusive: 89.1 µM [inhibitor, single point]"

Structure (SMILES),"activity change, negative = inhibition",Potency
c1ccc(Nc2c3c(nc4ccccc24)CCC3)cc1,,"inconclusive: 79.4 µM [inhibitor, single point]"
CC(NC(=O)c1ccc2c(c1)N(Cc1ccc(Cl)cc1)C(=O)c1ccccc1S2=O)c1ccccc1 (centres undefined),inactive: -12.6%,
COc1ccc(NC(=O)Cn2cccc2)cc1Cl,,"inconclusive: 50.1 µM [inhibitor, partial curve]"
Cc1sc2ncnc(N3CCN(Cc4ccccc4)CC3)c2c1-c1ccccc1,,active: 31.6 µM
COc1ccc(CN2CCC(C(=O)N3CCN(c4ccccc4F)CC3)CC2)cc1OC,,active: 56.2 µM
Cn1ccc2cc(-c3csc(N4CCC(C(N)=O)CC4)n3)ccc21,,active: 50.1 µM
CC(=O)c1sc(NC(=O)c2c(F)cccc2F)nc1C,,"inconclusive: 89.1 µM [inhibitor, single point]"
C/C(=N\N1CCN(C2c3ccccc3-c3ccccc32)CC1)c1ccco1,,"inconclusive: 28.2 µM [inhibitor, full curve]"
O=C(C1=C(O)C(=O)N(CC2CCCO2)C1c1cccnc1)c1ccco1 (centres undefined),,"inconclusive: 79.4 µM [inhibitor, single point]"
COc1ccc2sc(/C=C/c3ccccc3O)[n+](C)c2c1,,"inconclusive: 31.6 µM [inhibitor, full curve]"
CCN1CCN(c2ccc(S(=O)(=O)N3CCOCC3)cc2NC(=O)C(C)Oc2cccc(Cl)c2)CC1 (centres undefined),,"inconclusive: 79.4 µM [inhibitor, single point]"
CCOC(=O)C1CCC/C1=N\NC(=O)CN(c1cc(OC)ccc1OC)S(=O)(=O)c1ccccc1 (centres undefined),inactive: 2.46%,
Cc1cc(NS(=O)(=O)c2ccc(NS(=O)(=O)c3ccc(CC(C)C)cc3)cc2)nc(C)n1,,"inconclusive: 89.1 µM [inhibitor, single point]"
COc1ccc(NC(=S)Nc2ncccc2C)cc1OC,,"inconclusive: 39.8 µM [inhibitor, partial curve]"
COc1ccc(C(=O)NCCn2cc(SCc3cc(C)ccc3C)c3ccccc32)cc1,,"inconclusive: 89.1 µM [inhibitor, single point]"
CN(C#N)c1nc(Cl)nc(Nc2cccc(Cl)c2)n1,inactive: 3.56%,
COc1cc(C(C)=O)ccc1OCCCN1CCC(Cc2ccccc2)CC1,,active: 56.2 µM
COc1ccc(NC(=S)N(CCCN2CCCCCC2)Cc2cccs2)cc1,,"inconclusive: 79.4 µM [inhibitor, partial curve]"
Cc1ccc(C(=O)O)cc1NC(=O)C1=CSCCO1,inactive: -7.21%,
CCOC(=O)c1c(C)oc2nc(C)nc(NCCCN3CCN(c4ccc(F)cc4)CC3)c12,,"inconclusive: 31.6 µM [inhibitor, single point]"
O=C(Cn1ccc(=O)[nH]c1=O)NCCO,inactive: -8.16%,
Cc1ccc(/C=N/NC(=O)c2c(-c3ccccc3)noc2C)c(O)c1,inactive: -23.8%,
Cc1c(C)c2ccc(OCC(=O)NCCCn3ccnc3)c(C)c2oc1=O,,active: 79.4 µM
Oc1ccc2c(c1)C1CCCC1(N1CCOCC1)O2 (centres undefined),,"inconclusive: 89.1 µM [inhibitor, single point]"
